# From the supplement of paper PMC4604168 (melanoma cell lines)
# The other results are listed elsewhere or left out. Many values rest on one well or one pass, so single values are uncertain.
# Experiments:
# Experiment in all cases: cell count relative to DMSO control; melanoma cells; higher = more viable cells
# Details in all cases: library dose: standard library concentration; 72 h
# A101D = test system: A101D
# A2058 = test system: A2058
# A375 = test system: A375
# 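Also: cells treated in 1,536-well plates, then fixed and DAPI-stained, with nuclei counted from automated high-throughput microscope images.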
Structure (SMILES),cell count (A101D) [%],cell count (A2058) [%],cell count (A375) [%]
"CCCCCCCCc1ccc(CCC(N)(CO)CO)cc1 [fingolimod] + C=C(c1ccc(C(=O)O)cc1)c1cc2c(cc1C)C(C)(C)CCC2(C)C [Bexarotene] (first compound 10 µM, partner dose 10 µM)",4.8,3.71,17.5
"CCCCCCCCc1ccc(CCC(N)(CO)CO)cc1 [fingolimod] + Cn1nnc2c(C(N)=O)ncn2c1=O [temozolomide] (first compound 10 µM, partner dose 10 µM)",14.9,10.6,93.4
"NC(=O)c1ccc(N(C(N)=O)c2c(F)cccc2F)nc1-c1ccc(F)cc1F + O=C(O)c1ccc2c(c1)nc(Nc1cccc(Cl)c1)c1ccncc12 [CX4945] (first compound 2 µM, partner dose 2 µM)",76.4,70.3,108
"NC(=O)c1ccc(N(C(N)=O)c2c(F)cccc2F)nc1-c1ccc(F)cc1F + CCCS(=O)(=O)Nc1ccc(F)c(C(=O)c2c[nH]c3ncc(Cl)cc23)c1F [PLX4720] (first compound 2 µM, partner dose 0.4 µM)",79.4,69.9,95.5
"NC(=O)c1ccc(N(C(N)=O)c2c(F)cccc2F)nc1-c1ccc(F)cc1F + O=C(CCCCCCC(=O)Nc1ccccc1)NO [vorinostat] (first compound 2 µM, partner dose 0.4 µM)",86.8,86,146
"CCCCCCCCc1ccc(CCC(N)(CO)CO)cc1 [fingolimod] + O=C(O)[C@@H]1[O][Sb](=[O])([O][Sb]2(=[O])[O][C@H]([C@H](O)CO)[C@H](O)[C@H](C(=O)O)[O]2)[O][C@H]([C@H](O)CO)[C@@H]1O [stibogluconate] (first compound 10 µM, partner dose 10 µM)",17.8,23.9,90.1
"CCCCCCCCc1ccc(CCC(N)(CO)CO)cc1 [fingolimod] + COc1cc(Nc2ncc(F)c(Nc3ccc4c(n3)NC(=O)C(C)(C)O4)n2)cc(OC)c1OC [Tamatinib] (first compound 10 µM, partner dose 2 µM)",2.12,2.16,42.6
"CC(C)(C)c1cnc(CSc2cnc(NC(=O)C3CCNCC3)s2)o1 + NCC(=O)Nc1ccc(-n2nc(C(F)(F)F)cc2-c2ccc3c(ccc4ccccc43)c2)cc1 [OSU03012] (first compound 0.05 µM, partner dose 5 µM)",69.1,70,69
"NC(=O)c1ccc(N(C(N)=O)c2c(F)cccc2F)nc1-c1ccc(F)cc1F + Nc1cccc2c1CN(C1CCC(=O)NC1=O)C2=O [lenalidomide] (first compound 2 µM, partner dose 5 µM)",120,96.4,113
"NC(=O)c1ccc(N(C(N)=O)c2c(F)cccc2F)nc1-c1ccc(F)cc1F + O=C(O)[C@@H]1[O][Sb](=[O])([O][Sb]2(=[O])[O][C@H]([C@H](O)CO)[C@H](O)[C@H](C(=O)O)[O]2)[O][C@H]([C@H](O)CO)[C@@H]1O [stibogluconate] (first compound 2 µM, partner dose 10 µM)",104,99.3,147
"Cc1ccc(NC(=O)c2cccc(N(C)C)c2)cc1NC(=O)c1ccc(O)cc1 + Oc1cc(-c2nc(-c3ccccc3)[nH]c2-c2ccncc2)ccc1Cl [L779450] (first compound 10 µM, partner dose 1 µM)",71.1,85.9,81.3
"Cc1ccc(NC(=O)c2cccc(N(C)C)c2)cc1NC(=O)c1ccc(O)cc1 + O=C(Nc1cccc(Cl)c1)Nc1ncc(CCNc2ncnc3ccsc23)s1 [SNS314] (first compound 10 µM, partner dose 0.004 µM)",68.4,78.5,104
"NC(=O)c1ccc(N(C(N)=O)c2c(F)cccc2F)nc1-c1ccc(F)cc1F + Cc1cc(N2CCOCC2)cc2[nH]c(-c3c(NC[C@@H](O)c4cccc(Cl)c4)cc[nH]c3=O)nc12 [BMS536924] (first compound 2 µM, partner dose 1 µM)",88.7,93.3,101
"Cc1ccc(NC(=O)c2cccc(N(C)C)c2)cc1NC(=O)c1ccc(O)cc1 + O=C(O)c1ccc(-c2c[nH]c3ncc(-c4ccccc4)cc23)cc1C1CCCC1 [GSK650394] (first compound 10 µM, partner dose 0.8 µM)",80.8,80,96.1
